Read counts are not given, so values of variants with three or more changes are uncertain.

Consider 167 variants from the RNAGym collection of RNA variant scans (doi:10.7554/elife.90254).

The chains are these.
B1: LINE1-mini (parent)
chain: GGCAGAGCUCAACACAGCGUGGCAAAGUGGCUGUGGCUAGACUGCC

Variants of B1 are the subject of the data set. Kind of data set: self-cleavage, relative activity (ratio to wild type); higher = more cleavage; in vitro, sequencing; the parent is a self-cleaving ribozyme.
Regarding A6G C10A A26G, the self-cleavage was found to be 0.01.

As for A6G C13A C23U G27U U32C U38A, the self-cleavage stood at 0.03.

Turning to A6G G17A G21U G36U C37A, the self-cleavage turned out to be 0.05.

Consider A6G C18G U32G G36A A41C C42U, for which the self-cleavage is 0.01.

In the case of A6G C13A G29U, the self-cleavage amounted to 0.1.

In the case of A6G U28G G35A C42A C45G, the self-cleavage was found to be 0.03.

For A6G U28G G35U G40U, the self-cleavage was determined as 0.1.

For A6G U9A G17C G21U G33A, the self-cleavage was 0.09.

Regarding A6G C10U A16C, the self-cleavage is 0.

With A6U A12G G17U U20C G21U G33A G36U, the self-cleavage amounted to 0.03.

On to A6G C37A A39G, for which the self-cleavage came to 0.02.

A6G C10G A11G G33A U43A C45G: the self-cleavage turned out to be 0.01.

Take A6G G7U G27U G30U G40U: the self-cleavage came to 0.02.

As to A6G C10A G17A C42A, the self-cleavage stood at 0.03.

With A6G G27A U32A G33A C46A, the self-cleavage came out at 0.07.

For A6G G21A U34A, the self-cleavage was 0.

A6G C15A A41G C46G: the self-cleavage is 0.08.

As for A6G C15G C37U A39U, the self-cleavage turned out to be 0.

In the case of A6G G35A C46A, the self-cleavage amounted to 0.01.

With A6G U34C C37G, the self-cleavage worked out at 0.12.

Take A6U A11C C13U G19A: the self-cleavage stood at 0.01.

For A6G A26C G44U C45U, the self-cleavage was found to be 0.01.

As to A6G G36U C37G, the self-cleavage was found to be 0.

In the case of A6G G36U C37A, the self-cleavage came out at 0.03.

With A6G U20G G21A G30C, the self-cleavage amounted to 0.06.

Take A6U A12U A14U G30A U34G: the self-cleavage came out at 0.25.

On to A6G G7C A14U C37U C42A G44A, for which the self-cleavage was found to be 0.11.

For A6U A11U U34G, the self-cleavage is 0.1.

In the case of A6G U32A A39G, the self-cleavage came out at 0.03.

With A6G U32G G40C, the self-cleavage came to 0.07.

With A6G G17A G19C A41G, the self-cleavage was 0.02.

For the variant A6G G21A G27U, the self-cleavage came out at 0.1.

Take A6G G7U C10A U34C C45G: the self-cleavage turned out to be 0.01.

Consider A6G C13G G19U G30A A41U, for which the self-cleavage turned out to be 0.02.

Consider A6G U34A A39G, for which the self-cleavage is 0.04.

Consider A6G G7U A16G A25C C42A, for which the self-cleavage came to 0.02.

For the variant A6G U28G G29A C42A, the self-cleavage came out at 0.08.

On to A6G G27A G33C, for which the self-cleavage is 0.03.

For the variant A6G C8U U20G A25C A41C, the self-cleavage came out at 0.17.

Consider A6G G33C G36C A39U C45G, for which the self-cleavage was determined as 0.01.

A6G C18U G35U C42U: the self-cleavage stood at 0.1.

On to A6G C10U A11U G30C C31A, for which the self-cleavage amounted to 0.03.

On to A6G C23A A39G, for which the self-cleavage was determined as 0.03.

Regarding A6G C42G G44U C45G, the self-cleavage was 0.

As to A6G G29A A39C C46A, the self-cleavage is 0.02.

With A6G G29A G40U, the self-cleavage amounted to 0.02.

As for A6G U20C C42G C46G, the self-cleavage amounted to 0.01.

On to A6G C23A G35U A39C, for which the self-cleavage amounted to 0.4.

On to A6G C10A A12G C23U G29U, for which the self-cleavage is 0.01.

Consider A6G U20G G21U C37U C46A, for which the self-cleavage stood at 0.01.

Regarding A6G C18A G22U C23U G33A, the self-cleavage was 0.02.

As for A6G U9G C10U, the self-cleavage was 0.02.

A6G C13U A16C: the self-cleavage stood at 0.04.

With A6G G7U C18U G21A C46G, the self-cleavage came out at 0.03.

As to A6G C15A A41U, the self-cleavage is 0.05.

Take A6G U9A A14U A25U G27C G35A C45G: the self-cleavage was determined as 0.2.

Consider A6G G27U G29C C45G, for which the self-cleavage stood at 0.1.

Take A6G C13G G17C C31U U32C: the self-cleavage amounted to 0.03.

With A6G C13U G36C C42G, the self-cleavage came out at 0.02.

For the variant A6G C31A A41C C45G, the self-cleavage worked out at 0.01.

A6G G7U U9C U38G: the self-cleavage was 0.02.

As for A6G G29C U38C, the self-cleavage is 0.

As for A6G G33A U34C C45U C46G, the self-cleavage is 0.01.

In the case of A6G G7A C13A G30U C37G, the self-cleavage is 0.04.

On to A6G G21C C23G G36A C46U, for which the self-cleavage came out at 0.07.

With A6G G19C A26C, the self-cleavage was 0.03.

On to A6G G19C U43A, for which the self-cleavage stood at 0.02.

With A6U A12C G21C, the self-cleavage amounted to 0.

As to A6U A12C G35C, the self-cleavage came out at 0.05.

A6G G7U U9G C13G G21U G44C: the self-cleavage worked out at 1.91.

In the case of A6G C18A G33C G44A, the self-cleavage turned out to be 0.12.

For the variant A6G G7U C10U U34A G36U C37A, the self-cleavage came out at 0.02.

Regarding A6G C10U A16G A25U C37G C45G, the self-cleavage came to 0.02.

As to A6G C18A U32A U43A, the self-cleavage amounted to 0.11.

Regarding A6G C13A G29U A39C C45G, the self-cleavage worked out at 0.08.

Turning to A6G C10A A11C C42A, the self-cleavage worked out at 0.

Consider A6G U9G U20A U28A U32C, for which the self-cleavage was 0.1.

In the case of A6G G19U G29U C31U U34C, the self-cleavage was 0.02.

In the case of A6G U32C G36A C37A, the self-cleavage came to 0.02.

Consider A6G G19U U38C, for which the self-cleavage came out at 0.06.

Consider A6G C8U U20C G36C, for which the self-cleavage came out at 0.

A6G C10G A11G A14C A16C G21U C31G: the self-cleavage came to 0.

As for A6G C13A C15G A24C G33U C37U, the self-cleavage is 0.01.

Regarding A6G G27U G29C, the self-cleavage is 0.02.

A6G A41C C46A: the self-cleavage amounted to 0.17.

A6G U9A G17A G29C G40C C42G: the self-cleavage amounted to 0.02.

For A6G G21A C23G, the self-cleavage is 0.

On to A6U A12U A14U G35U, for which the self-cleavage was found to be 0.11.

With A6G U9A G30U, the self-cleavage was determined as 0.16.

With A6G C31A G33C C45U, the self-cleavage was 0.09.

Consider A6G G30A G44U, for which the self-cleavage came out at 0.04.

As for A6G C15U A26U, the self-cleavage worked out at 0.02.

In the case of A6G C8A G29U, the self-cleavage was 0.36.

A6G C8U U34A C37G: the self-cleavage was determined as 0.43.

For the variant A6G G22U G35C C46A, the self-cleavage was 0.07.

On to A6G G21U G29U C42U, for which the self-cleavage was found to be 0.06.

On to A6G U9G A39U G40C, for which the self-cleavage came to 0.02.

Regarding A6G C13G A16G G21U G27A G29U, the self-cleavage was found to be 0.01.

With A6G G7A G27C, the self-cleavage came to 0.12.

As for A6G G21C G33C, the self-cleavage stood at 0.05.

As to A6G C18G C42G, the self-cleavage was 0.01.

Regarding A6G A26C U38A, the self-cleavage is 0.03.

Take A6G C23A U28A: the self-cleavage was determined as 0.27.

Turning to A6G G22A A24G A39C, the self-cleavage turned out to be 0.05.

As for A6G G7A G44C, the self-cleavage was determined as 0.1.

Take A6G U28A G35A: the self-cleavage is 0.15.

Turning to A6G C13G G19C U20C G21C, the self-cleavage was determined as 0.01.

In the case of A6G U9C C23G C31U U43G, the self-cleavage was 0.

With A6G G21U C45U, the self-cleavage is 0.23.

For the variant A6G G29A C46U, the self-cleavage was found to be 0.17.

Regarding A6G G21A G29U C37U, the self-cleavage stood at 0.03.

For A6G C8U C10A C23G C45G, the self-cleavage turned out to be 0.02.

Consider A6G G19A C45G, for which the self-cleavage is 0.16.

Consider A6G U34G U43C, for which the self-cleavage turned out to be 0.05.

As for A6G G21A G30U, the self-cleavage was determined as 0.11.

Take A6G G17A C23U U28A G36A G40U: the self-cleavage is 0.03.

A6U A12U C13A C23U G27A G33C G44A: the self-cleavage was found to be 0.09.

Regarding A6G C23U A39C C45G, the self-cleavage is 0.04.

Turning to A6G C8U U9C A11U G44A, the self-cleavage worked out at 0.01.

A6G G17C G19A U20C G33A: the self-cleavage was determined as 0.02.

Consider A6U A11C G40U, for which the self-cleavage stood at 0.04.

For the variant A6G G33U C46G, the self-cleavage turned out to be 0.14.

As for A6G G22C A25U G36U C42U U43A, the self-cleavage was found to be 0.04.

On to A6G G40A U43G, for which the self-cleavage was 0.05.

Regarding A6G G19A G40U, the self-cleavage worked out at 0.26.

On to A6G G21C A39G, for which the self-cleavage turned out to be 0.03.

As for A6G U20G G21U, the self-cleavage stood at 0.11.

For the variant A6G C15U G35A, the self-cleavage is 0.08.

Take A6G C13A U20A: the self-cleavage turned out to be 0.22.

Consider A6G C23U G30C G40C, for which the self-cleavage stood at 0.

For A6U A11U G21U, the self-cleavage came out at 0.14.

With A6G C8A C13A C15G G27C, the self-cleavage came out at 0.07.

Regarding A6G U9A G17U A26U G35A G36C, the self-cleavage was determined as 0.01.

Take A6G C10G G21A: the self-cleavage was 0.01.

A6G G19C A24G: the self-cleavage was 0.03.

As for A6G C23G G33C C37U, the self-cleavage is 0.02.

With A6G U34A C42A, the self-cleavage stood at 0.04.

Turning to A6G C10A C18U G36C, the self-cleavage amounted to 0.

On to A6G C8G G17U A24G, for which the self-cleavage came out at 0.01.

In the case of A6G G7A C10A C13A C15U G40C A41G, the self-cleavage was 0.06.

As to A6G C15G G40C, the self-cleavage was 0.01.

Take A6G G21C U34G: the self-cleavage amounted to 0.06.

With A6G C15A G17U A24U A26C U34A A41C, the self-cleavage worked out at 0.03.

Regarding A6G C42G C45A C46A, the self-cleavage turned out to be 0.01.

Consider A6G G33U A39C, for which the self-cleavage was 0.06.

For A6G C8A A11C G29A G40C, the self-cleavage was determined as 0.01.

On to A6G G7U C13A G40A U43G, for which the self-cleavage was determined as 0.01.

On to A6G G19A G27C U32G G36C U38A, for which the self-cleavage came to 0.01.

As for A6G G17A G19A C46A, the self-cleavage was 0.

On to A6G G33U G35A G40A, for which the self-cleavage was 0.07.

For A6U A12G U28C, the self-cleavage was found to be 0.02.

As for A6G G7C C13A A25U G30U G36A, the self-cleavage came to 0.09.

Consider A6G C10U A39G C46U, for which the self-cleavage amounted to 0.

Take A6G C18A C42U G44C: the self-cleavage came out at 0.05.

For the variant A6G C13U A26C G36U C45A, the self-cleavage amounted to 0.89.

In the case of A6G G7U G27A C45G, the self-cleavage came out at 0.03.

Turning to A6U A12U C42G, the self-cleavage came out at 0.08.

As for A6G U9C G36U G44C C45G, the self-cleavage was determined as 0.

With A6U A12C G33A, the self-cleavage came to 0.02.

Regarding A6G C15U A39C, the self-cleavage came to 0.21.

Consider A6G G36C C37G G40U, for which the self-cleavage was 0.21.

Regarding A6G C10G G21C G30U C42U, the self-cleavage turned out to be 0.01.

On to A6G U34C A41G U43G, for which the self-cleavage amounted to 0.04.

Consider A6G G21U A26C, for which the self-cleavage is 0.2.

Regarding A6G G21U A26U, the self-cleavage is 0.2.

On to A6G C31U A41C, for which the self-cleavage came out at 0.02.

For the variant A6G U9A C13U C45G, the self-cleavage was 0.19.
